Several values for one entry are separate records, joined by “and”; a condition that tells them apart may be missing. Identical values can stand only once. Like-named read-outs stand apart in the source and are kept apart here.
Tests used:
P-gp [1] = system: P-gp; design: method as in Poirier et al. [41]; details: digoxin efflux ratio, MDR1-transfected cells; ref Poirier et al. [41]; cited from earlier work
P-gp [2] = biological target: T1, P-gp (Homo sapiens, UniProt P08183); details: outcome versus clinic in brackets (TP, FP, TN, FN); for P-gp Inhibition Prediction (FDA Criteria) Digoxin IC50: IC50 from digoxin bidirectional transport assay of Poirier et al. [41]; for P-gp Inhibition Prediction (FDA Criteria) Rhodamine 123 IC50: IC50 from rhodamine 123 assay
T1 sequence (P08183 whole entry): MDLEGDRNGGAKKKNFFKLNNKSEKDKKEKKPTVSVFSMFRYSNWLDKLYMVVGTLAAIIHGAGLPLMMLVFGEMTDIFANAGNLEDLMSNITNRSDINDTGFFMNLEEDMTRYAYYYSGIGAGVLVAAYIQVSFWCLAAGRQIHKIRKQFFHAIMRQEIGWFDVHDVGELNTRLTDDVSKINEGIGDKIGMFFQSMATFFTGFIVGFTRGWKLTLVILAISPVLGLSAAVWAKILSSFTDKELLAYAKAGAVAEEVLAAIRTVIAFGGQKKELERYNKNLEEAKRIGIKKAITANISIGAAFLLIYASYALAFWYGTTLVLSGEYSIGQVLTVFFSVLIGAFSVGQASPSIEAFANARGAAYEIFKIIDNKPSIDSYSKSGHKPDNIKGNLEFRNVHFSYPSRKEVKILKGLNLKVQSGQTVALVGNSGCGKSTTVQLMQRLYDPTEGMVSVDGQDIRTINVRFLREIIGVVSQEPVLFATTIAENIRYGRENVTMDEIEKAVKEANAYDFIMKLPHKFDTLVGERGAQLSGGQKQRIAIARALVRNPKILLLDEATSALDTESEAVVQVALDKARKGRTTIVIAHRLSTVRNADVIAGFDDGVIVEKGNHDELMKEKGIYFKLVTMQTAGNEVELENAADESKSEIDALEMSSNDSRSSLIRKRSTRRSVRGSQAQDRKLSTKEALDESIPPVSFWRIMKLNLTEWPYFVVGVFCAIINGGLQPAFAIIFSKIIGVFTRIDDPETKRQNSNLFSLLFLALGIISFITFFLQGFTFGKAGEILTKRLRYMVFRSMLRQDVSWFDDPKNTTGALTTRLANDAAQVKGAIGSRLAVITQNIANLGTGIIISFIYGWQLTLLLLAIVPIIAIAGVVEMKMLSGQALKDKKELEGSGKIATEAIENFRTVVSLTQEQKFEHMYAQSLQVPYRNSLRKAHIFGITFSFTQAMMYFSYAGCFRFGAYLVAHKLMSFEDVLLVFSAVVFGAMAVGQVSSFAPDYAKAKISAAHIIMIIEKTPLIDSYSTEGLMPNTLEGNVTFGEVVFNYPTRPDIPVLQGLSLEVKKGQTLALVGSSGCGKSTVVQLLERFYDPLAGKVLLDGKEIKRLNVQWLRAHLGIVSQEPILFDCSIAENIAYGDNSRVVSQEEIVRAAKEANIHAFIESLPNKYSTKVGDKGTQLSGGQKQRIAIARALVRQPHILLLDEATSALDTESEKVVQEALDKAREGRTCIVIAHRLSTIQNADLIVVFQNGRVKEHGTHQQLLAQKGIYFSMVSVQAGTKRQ

P-gp [3] = biological target: T1, P-gp; details: ref Poirier et al. [41], cited from earlier work; for [I1] total plasma concentration / [I2] gut concentration: perpetrator in clinical digoxin DDI study; for Clinical Relevance: digoxin DDI relevance per study
P-gp [4] = details: ratio of highest versus lowest IC50 from five experimental measurements; ref Lee et al. [11]; cited from earlier work
P-gp [5] = biological target: T1, P-gp; assay: cell-based
P-gp [6] = biological target: T1, P-gp; details: for rhodamine 123 accumulation in MCF7R cells: various concentrations, up to 100 µM
MCF7 cells = assay: Rhodamine 123 accumulation in parental MCF7 cells; details: 50 µM, 5.25 µM rhodamine 123, 30 min

Row | SMILES | IC50 (P-gp [1]) [µM] | P-gp Inhibition Prediction (FDA Criteria) Digoxin IC50 (P-gp [2]) | [I1] total plasma concentration (P-gp [3]) | [I2] gut concentration (P-gp [3]) | also measured
1 | O[C@@H](COc1cccc2ncccc12)CN1CCN([C@@H]2c3ccccc3[C@@H]3[C@H](c4ccccc42)C3(F)F)CC1 [Zosuquidar, zosuquidar] | 0.02 | – | – | – | –
2 | CCOC(=O)C1=C(C)NC(C)=C(C(=O)OC)C1c1cccc([N+](=O)[O-])c1 (stereo not drawn) [Nitrendipine, nitrendipine] | 18.2 | + (TP) | 0.03 µM and 0.015 µM | 222 µM and 111 µM | IC50 Range for P-gp Inhibition (-fold) (P-gp [4]): 72 -fold; IC50 (P-gp [5]): 251 ± 43.8 µM
3 | CCC(C)n1ncn(-c2ccc(N3CCN(c4ccc(OCC5COC(Cn6cncn6)(c6ccc(Cl)cc6Cl)O5)cc4)CC3)cc2)c1=O (stereo not drawn) [Itraconazole, itraconazole] | 1.8 | + (TP) | 0.95 µM | 1134 µM | Clinical Relevance (P-gp [3]): + (clinical relevance: AUCi/AUC ≥ 1.25 and/or Cmaxi/Cmax ≥ 1.25); rhodamine 123 accumulation in MCF7R cells (P-gp [6]): not to increase
4 | Cc1c(C)c2c(c(C)c1O)CCC(C)(COc1ccc(CC3SC(=O)NC3=O)cc1)O2 (stereo not drawn) [Troglitazone, troglitazone] | 15.9 | + (FP) | 3.62 µM | – | P-gp Inhibition Prediction (FDA Criteria) Rhodamine 123 IC50 (P-gp [2]): + (FP); Clinical Relevance (P-gp [3]): − (non relevant DDI (ratio AUCi/AUC < 1.25 and ratio Cmaxi/Cmax < 1.25)); IC50 Range for P-gp Inhibition (-fold) (P-gp [4]): 36 -fold; IC50 (P-gp [5]): 44.1 ± 7.7 µM
5 | COc1ccc(CCN(C)CCCC(C#N)(c2ccc(OC)c(OC)c2)C(C)C)cc1OC (stereo not drawn) [Verapamil, verapamil] | – | – | – | – | rhodamine 123 level in MCF7 cells (MCF7 cells): did not alter
6 | COc1cc2c(cc1OC)CN(CCc1ccc(NC(=O)c3cccc4c(=O)c5cccc(OC)c5[nH]c34)cc1)CC2 [Elacridar, elacridar] | – | – | – | – | dye accumulation in MCF7R cells (P-gp [6]; 1 µM, 5.25 µM rhodamine 123, 30 min): increased dye accumulation
7 | COc1ccccc1OCCNCC(O)COc1cccc2[nH]c3ccccc3c12 (stereo not drawn) [Carvedilol, carvedilol] | 1.3 | – | – | – | –
8 | COc1ccc2c3c([nH]c2c1)[C@H](C=C(C)C)N1C(=O)[C@@H]2CCCN2C(=O)[C@@H]1C3 [fumitremorgin C] | – | – | – | – | rhodamine 123 levels in MCF7R cells (P-gp [6]; 10 µM, 5.25 µM rhodamine 123, 30 min): failed to augment
9 | CCCN(CCC)S(=O)(=O)c1ccc(C(=O)O)cc1 [probenecid] | – | – | – | – | rhodamine 123 levels in MCF7R cells (P-gp [6]; 2 mM, 5.25 µM rhodamine 123, 30 min): failed to augment
10 | COC(=O)C1=C(C)NC(C)=C(C(=O)OC(C)C)C1c1cccc2nonc12 (stereo not drawn) [Isradipine, isradipine] | 7.7 | – | 0.02 µM | 54 µM | Clinical Relevance (P-gp [3]): + (clinical relevance: AUCi/AUC ≥ 1.25 and/or Cmaxi/Cmax ≥ 1.25); IC50 Range for P-gp Inhibition (-fold) (P-gp [4]): 24 -fold; IC50 (P-gp [5]): 83.1 ± 10.8 µM
11 | COC(=O)C1=C(C)NC(C)=C(C(=O)OCCN(C)Cc2ccccc2)C1c1cccc([N+](=O)[O-])c1 (stereo not drawn) [Nicardipine, nicardipine] | – | + (FP) | 0.18 µM | 250 µM | P-gp Inhibition Prediction (FDA Criteria) Rhodamine 123 IC50 (P-gp [2]): + (FP)
12 | CN[C@H]1CC[C@@H](c2ccc(Cl)c(Cl)c2)c2ccccc21 [Sertraline, sertraline] | – | – | – | – | rhodamine 123 accumulation in MCF7R cells (P-gp [6]): not to increase

Reference: paper PMC4932475, “Evaluation of P-Glycoprotein Inhibitory Potential Using a Rhodamine 123 Accumulation Assay” (Pharmaceutics, 2016)
